Out of some 410,000 compounds screened, about 5,000 (1.2%) were called active. Inconclusive results, whose numbers are uncertain, are shown with a selection of clear calls. Calls follow the shape of the dose curve; as a rule, active = well fitted inhibition curve with a large enough effect; inconclusive = small, poorly fitted or top-dose-only effect; inactive = no such curve, though single readings can be large or run the other way. A potency beside an inconclusive call is a rough fit, not a confirmed value.
Test: qHTS for Inhibitors of TGF-b; also: nearly all actives have a fitted effect of over 65% in size
Details: HepG2 CAGA-GFP TGF-b/SMAD3 reporter, GFP fluorescence, 18 h, TGF-beta stimulated, 500 pg/mL final; series mostly up to 46.1 µM; activity, negative = inhibition: at the top concentration
Method in brief: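 Inhibition was scored as loss of TGF-beta-induced (500 pg/mL final, 18 hours, 37 degrees C) GFP in HEPG2 cells carrying a CAGA-GFP reporter, in DMEM with 1% FBS. Well GFP was summed per cell; Activity was normalised to unstimulated and stimulated DMSO wells, then concentration-response fitting.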
% is scaled to controls: 0 for no effect and ±100 for the full control effect; potency is read from the fitted curve at half-maximal effect; tags tell the direction and shape of the fitted curve.

For Cc1cccc(C(=O)Nc2c(C(=O)NCc3ccc(Cl)cc3)sc3nc(C)cc(C)c23)c1, which Potency is on record?
Its Potency is inconclusive: 20 µM [inhibitor, partial curve].

Which Potency does the source give for COc1ccc(OC)c(CCNC(=O)c2cnn(-c3ccccc3Cl)c2C2CCN(C(=O)OC(C)(C)C)CC2)c1 here?
Its Potency is active: 10 µM.

For C/C(CC(=O)Nc1ccc(Cl)c(Cl)c1)=N\NC(=O)C(=O)N1CCCCC1, which Potency is on record?
The Potency was inconclusive: 10 µM [inhibitor, single point].

For CC(=O)Nc1ccc(S(=O)(=O)Nc2cc(-c3cn4ccccc4n3)ccc2C)cc1, which “activity, negative = inhibition” value is on record?
The value was inactive: 8.72%.

For COc1ccc(NC(=O)c2c(C)oc3ccc(O)c(CN4CCCCCC4)c23)cc1Cl, which Potency is on record?
Its Potency is inconclusive: 35.5 µM [inhibitor, single point].

For c1ccc(CCc2nc(-c3ccc(-n4cccc4)cc3)no2)cc1, which Potency is on record?
Its Potency is inconclusive: 35.5 µM [inhibitor, single point].

With Cc1ccc(/C=N/NC(=O)CN2CCN(S(=O)(=O)c3ccc(Br)cc3)CC2)s1 as the molecule, how does the “activity, negative = inhibition” value read?
Its value is inactive: 3.54%.

With COc1ccc(/C=C/c2nc(C#N)c(NCCc3ccccc3)o2)cc1OC as the molecule, how does the Potency read?
Its Potency is inconclusive: 35.5 µM [inhibitor, single point].

For Cc1nc2c(-c3ccc(Cl)cc3)cnn2c(N)c1-c1ccc(F)cc1, which “activity, negative = inhibition” value is on record?
Its value is inactive: -7.2%.

For CCc1nc(N2CCCCC2C(=O)O)c2oc3ccccc3c2n1 (centres undefined), which “activity, negative = inhibition” value is on record?
The value was inactive: -0.292%.

Which Potency does the source give for Fc1ccccc1CNc1nc(NCC2CC2)nc2ccsc12 here?
Its Potency is inconclusive: 35.5 µM [inhibitor, single point].

Which Potency does the source give for CCN1CCN(C(=O)Cn2ncc3c2-c2ccccc2OC3)CC1 here?
The Potency was inconclusive: 17.8 µM [inhibitor, partial curve, poor fit].

With O=C(CSc1nc(-c2ccc(F)cc2)cc(C(F)(F)F)n1)NCc1ccco1 as the molecule, how does the “activity, negative = inhibition” value read?
Its value is inactive: -19.6%.

For Cc1ccsc1/C=N/Nc1ncc(Cl)cc1Cl, which Potency is on record?
The Potency was inconclusive: 2.24 µM [inhibitor, partial curve, poor fit].

Which Potency does the source give for O=C(c1ccc2nsnc2c1)N1CCN(c2ccc([N+](=O)[O-])cc2)CC1 here?
The Potency was inconclusive: 15.8 µM [inhibitor, single point].

With Cc1ccccc1N(C(=O)c1cccs1)c1nc2ccccc2s1 as the molecule, how does the “activity, negative = inhibition” value read?
Its value is inactive: -4.79%.

With O=C(c1ccc(N2C(=O)C3CCCCC3C2=O)cc1)N1CCCCC1 (centres undefined) as the molecule, how does the Potency read?
Its Potency is inconclusive: 12.6 µM [inhibitor, single point].

For CC(=O)Nc1ccc(NC(=O)CCS(=O)(=O)c2ccc3c(c2)CC(=O)N3C)cc1, which “activity, negative = inhibition” value is on record?
Its value is inactive: -2.56%.

With COc1cccc(C(O)c2nc(-c3cccc(C(F)(F)F)c3)cs2)c1 (centres undefined) as the molecule, how does the Potency read?
Its Potency is inconclusive: 15.8 µM [inhibitor, single point].

For CC1=Nc2cc(C(=O)NCCc3ccc(Cl)cc3)ccc2Sc2c(C)ccc(C)c21, which Potency is on record?
Its Potency is active: 7.94 µM.

With CCOc1cccc(NC(=O)C(Cc2cccs2)c2nn[nH]n2)c1 (centres undefined) as the molecule, how does the Potency read?
Its Potency is inconclusive: 0.631 µM [inhibitor, partial curve, poor fit].

For O=[N+]([O-])c1cc(S(=O)(=O)NCCCN2CCOCC2)ccc1Cl, which Potency is on record?
The Potency was inconclusive: 14.1 µM [inhibitor, single point].

Which “activity, negative = inhibition” value does the source give for CC(=O)Nc1cc(-c2ccc(C(=O)N3CCOCC3)cc2)cn2c(-c3ccccc3)cnc12 here?
Its value is inactive: 8.9%.

Which “activity, negative = inhibition” value does the source give for O=C(COc1ccc(/C=N/NC(=O)c2ccccc2O)cc1)Nc1ccc([N+](=O)[O-])cc1 here?
The value was inactive: 1.82%.

For Cc1ccc(C)c(NS(=O)(=O)c2cc(C(=O)NCCSC3CCCCC3)ccc2C)c1, which Potency is on record?
Its Potency is inconclusive: 35.5 µM [inhibitor, single point].

For COc1ccccc1C(=O)OCc1cc(=O)n2nc(C(C)C)sc2n1, which Potency is on record?
The Potency was inconclusive: 3.16 µM [inhibitor, full curve, poor fit].

With O=C(CCl)Nc1ccc2c(c1)OCO2 as the molecule, how does the “activity, negative = inhibition” value read?
Its value is inactive: -15.2%.

For COc1cccc(Cn2c3ccc(NC(=O)CCc4ccc(F)cc4)cc3c(=O)n2C)c1, which Potency is on record?
Its Potency is inconclusive: 6.31 µM [inhibitor, single point].

For CCc1ccc(C(C)NC(=O)C2CCCC2)cc1 (centres undefined), which “activity, negative = inhibition” value is on record?
Its value is inactive: 1.85%.

Which “activity, negative = inhibition” value does the source give for CSc1ccccc1C(=O)Nc1c(C)cccc1C here?
Its value is inactive: -20.4%.

For O=C(COC(=O)[C@@H]1CC(O)CN1S(=O)(=O)c1ccccc1[N+](=O)[O-])c1ccccc1 (some centres undefined), which “activity, negative = inhibition” value is on record?
The value was inactive: -22.7%.

Which Potency does the source give for O=c1c2ccccc2nc(COc2ccccc2)n1/N=C/c1ccco1 here?
The Potency was inconclusive: 14.1 µM [inhibitor, single point].

For CSc1nc(-c2ccc(Cl)cc2Cl)[nH]c(=O)c1C#N, which Potency is on record?
The Potency was inconclusive: 20 µM [inhibitor, single point].

With O=C(CSc1nnc(-c2ccccc2)c(-c2ccccc2)n1)NC1CCS(=O)(=O)C1 (centres undefined) as the molecule, how does the Potency read?
The Potency was inconclusive: 3.16 µM [inhibitor, single point].

With Cc1cccn2c(=O)c(/C=C(\C#N)C(=O)NCc3ccco3)c(N3CCCCCC3)nc12 as the molecule, how does the Potency read?
Its Potency is inconclusive: 15.8 µM [inhibitor, partial curve, poor fit].

With Cc1cn([C@H]2C[C@H](O)[C@@H](/C=C/C(=O)NCc3cccc4ccccc34)O2)c(=O)[nH]c1=O as the molecule, how does the Potency read?
Its Potency is inconclusive: 11.2 µM [inhibitor, partial curve].

Which Potency does the source give for O=C(Nc1cccc(Cl)c1)c1ccc(F)c(S(=O)(=O)N2CCN(c3ccccn3)CC2)c1 here?
The Potency was inconclusive: 8.91 µM [inhibitor, partial curve, poor fit].

For CC1=C(C(=O)OC2CCCCCC2)C(c2cccc(Cl)c2)CC(=O)N1 (centres undefined), which Potency is on record?
The Potency was inconclusive: 3.98 µM [inhibitor, partial curve].

For COc1ccccc1Cc1nc2ccccc2nc1SCC(=O)NCc1ccccc1Cl, which “activity, negative = inhibition” value is on record?
The value was inactive: -2.07%.

Which “activity, negative = inhibition” value does the source give for O=C(CCCn1c(=S)[nH]c2ccsc2c1=O)Nc1ccc(F)cc1 here?
Its value is inactive: -11.4%.

Which Potency does the source give for CN1CCc2nc3sc(C(=O)Nc4ccccc4C(F)(F)F)c(N)c3cc2C1 here?
Its Potency is inconclusive: 0.112 µM [inhibitor, full curve, poor fit].

Which Potency does the source give for CCOc1ccc(OCCC(=O)N2CCN(S(=O)(=O)c3ccc(F)cc3)CC2)cc1 here?
Its Potency is inconclusive: 5.62 µM [inhibitor, single point].

For O=C1C(F)=CC(COC(c2ccccc2)(c2ccccc2)c2ccccc2)OC1n1cc(F)c(=O)[nH]c1=O (centres undefined), which Potency is on record?
The Potency was active: 5.01 µM.

Which Potency does the source give for O=C(Cc1ccc(F)cc1)NCCc1ccc(F)cc1 here?
Its Potency is inconclusive: 3.16 µM [inhibitor, single point].
